Experimental findings from article PMC7819943, “Rice protein-binding microarrays: a tool to detect cis-acting elements near promoter regions in rice” are described below.

This is one part of the list.

This test addresses T1, OsWOX13 (Oryza sativa, UniProt Q5QMM3 1-267).
T1 sequence: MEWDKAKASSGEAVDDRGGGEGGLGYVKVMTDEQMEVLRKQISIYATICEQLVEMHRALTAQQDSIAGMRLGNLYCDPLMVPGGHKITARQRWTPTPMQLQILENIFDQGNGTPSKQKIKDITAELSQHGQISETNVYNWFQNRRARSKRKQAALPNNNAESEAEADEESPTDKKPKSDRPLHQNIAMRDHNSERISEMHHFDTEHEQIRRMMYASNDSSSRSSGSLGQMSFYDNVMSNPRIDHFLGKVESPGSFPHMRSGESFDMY
The test is described as follows: protein-binding microarray (RPBM); PBS, 2% BSA, 51.3 ng/ul salmon testes DNA, 50 uM zinc acetate, 200 nM TF, 25 C, 1 h; high values mean tight binding. To be noted: protein: recombinant; tags: N-terminal polyhistidine and DsRed monomer fusion (pET32a); label: CyDye5-dUTP incorporated in the synthesized complementary strand; 3' TTTTT single-stranded linker to array surface; dsDNA, one strand shown. In outline: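 Binding signal here means per-feature fluorescence intensity in arbitrary units. The values were read on an Axon 4000B scanner after a custom Agilent array, double-stranded by primer extension with Cy5-dUTP, was incubated with 200 nM protein at 25 °C for 1 h in PBS with 2% BSA, salmon testes DNA and 50 µM zinc acetate, then washed. The proteins were transcription factors with an N-terminal polyhistidine tag and DsRed, expressed in E. coli BL21-CodonPlus and purified on Ni–NTA.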
On to “ATGATTTAATTACAAACAGATCCAGACTATGCCGTCGTGGCGGAGTCACCTAGTGCAG”, for which the binding signal was 47400 fluorescence intensity (a.u.). Regarding “TGTGTATTATGTATTAATTTGATGAGGTATATTCACCATCCGGAGTCACCTAGTGCAG”, the binding signal was 5440 fluorescence intensity (a.u.).

On to “AAGCTTAATTAAACAAAACCGATGAGCTCCTGCTCTTTGGCGGAGTCACCTAGTGCAG”, for which the binding signal was 15700 fluorescence intensity (a.u.).

For “CCTTGACAACGAGAATTTCTTCCCACGTACTTGATCGACTCGGAGTCACCTAGTGCAG”, the binding signal is 3350 fluorescence intensity (a.u.). Next, “ACACTAATCACCTGATAGATGAACTTAACAAATTCGCCATCGGAGTCACCTAGTGCAG”: 25900 fluorescence intensity (a.u.). For “TGGATAATGGATTGGCTAATAGGGATTGGTACTTGCCGTCCGGAGTCACCTAGTGCAG”, the binding signal is 10100 fluorescence intensity (a.u.).

With “AATATCAAATCTCGTACAAATTAACTTATTTCATCACAGCCGGAGTCACCTAGTGCAG”, the binding signal is 5130 fluorescence intensity (a.u.).

With “ATGATTTTATATTCAAATTTTGTTTTAAAATAAGTACAATCGGAGTCACCTAGTGCAG”, the binding signal was 3500 fluorescence intensity (a.u.). As for “GAGCTCCAATTACCTCCATGTCATTTTATAACTAATAGAGCGGAGTCACCTAGTGCAG”, the binding signal was 6770 fluorescence intensity (a.u.). Next, “TCTAATGAGCCTAATTAATCCATGATTAGCCTATGTGATGCGGAGTCACCTAGTGCAG”: 45900 fluorescence intensity (a.u.); “TCCAATTAAATTACATCAAGCATTCCCAACCTGCAGGTAGCGGAGTCACCTAGTGCAG”: 18500 fluorescence intensity (a.u.); “GTCACATCGTTCCAATTTCAATCAAAATTTCAATTTTAGCCGGAGTCACCTAGTGCAG”: 4070 fluorescence intensity (a.u.). Next, “ATTTAATTATTACGAACACAACGGTGTAATTGGATCGTAGCGGAGTCACCTAGTGCAG”: 33800 fluorescence intensity (a.u.). Next, “ATTAGACAAACAATAAGATTATTGGTAAAGAAAGTTGCAGCGGAGTCACCTAGTGCAG”: 4230 fluorescence intensity (a.u.). Take “TTCTAATTAGTGTCCAAACATCTGATGTGACAGGGACTAACGGAGTCACCTAGTGCAG”: the binding signal was 33000 fluorescence intensity (a.u.).

As for “CCTCCCCTTTCATCGTCTCCAATCACCATCATCTGCACGTCGGAGTCACCTAGTGCAG”, the binding signal was 3310 fluorescence intensity (a.u.).

For “GGATGTAGCTTGATTGCTCGCCGTACGTCGTCGACATGTTCGGAGTCACCTAGTGCAG”, the binding signal is 8620 fluorescence intensity (a.u.). Next, “ATTAATTAACGGTGTTTTGCATGCGAGTGCGACGCCGCAGCGGAGTCACCTAGTGCAG”: 21100 fluorescence intensity (a.u.). Next, “CCTGATGAAAATAGACTCGGGCTTAGACTCTGCCGGTCTGCGGAGTCACCTAGTGCAG”: 19100 fluorescence intensity (a.u.). For “TGGCTAACCATATAGCTTAGCCAGTGGGATGGAGATGCTGCGGAGTCACCTAGTGCAG”, the binding signal is 17700 fluorescence intensity (a.u.). Regarding “TGAAGTAATTGCACACAATAAGAAAATGGACTAAACATCACGGAGTCACCTAGTGCAG”, the binding signal is 6750 fluorescence intensity (a.u.). Next, “AAATTCTAACAAGTAGTTAATTGATAGATAGCTTATGAGACGGAGTCACCTAGTGCAG”: 42300 fluorescence intensity (a.u.); “TGGTATATTAATTATTTCCTTTCCTTCCTTTCCCTTCCGACGGAGTCACCTAGTGCAG”: 5690 fluorescence intensity (a.u.).

As to “TAAAATAATTTATAATATAAAACAGATGTGGTATTATATCCGGAGTCACCTAGTGCAG”, the binding signal was 15100 fluorescence intensity (a.u.). The figure for “CTTGTTACTAATGGGGCCAATCATGAAAGAAGTGCGGGAGCGGAGTCACCTAGTGCAG” is 8990 fluorescence intensity (a.u.); for “AGTTTGTCATCATTGACTTTATTTGAAAGAGGCAAGGCCTCGGAGTCACCTAGTGCAG” it is 4870 fluorescence intensity (a.u.); for “CTGATGTGATGACGCCATTTCGCTGACGATTTGTGCCGTTCGGAGTCACCTAGTGCAG” it is 6310 fluorescence intensity (a.u.).

As to “AATCAGTAATCACTGAGTCGTTACTGCTGCTTTCCGGTTGCGGAGTCACCTAGTGCAG”, the binding signal was 3800 fluorescence intensity (a.u.).

As to “TATTATCAAATCATGGCGTAATTAGGCTCAAAAGATTCGTCGGAGTCACCTAGTGCAG”, the binding signal is 15000 fluorescence intensity (a.u.). Turning to “TTGAGATATAATTGCTACGTAAGTGCCACGTCAATGCCACCGGAGTCACCTAGTGCAG”, the binding signal was 10300 fluorescence intensity (a.u.). The figure for “CAAATTTTACAAAATTGCATGATCGAAGCAAACTTATAGCCGGAGTCACCTAGTGCAG” is 3320 fluorescence intensity (a.u.). The figure for “ATCTATATATTAACAATTAATTAATTAAGTACATGCATTTCGGAGTCACCTAGTGCAG” is 15400 fluorescence intensity (a.u.); for “GGTTTCTAATTTGACAATTCATTTGAAAGCAATTGATAAACGGAGTCACCTAGTGCAG” it is 11200 fluorescence intensity (a.u.); for “TGTTAATTTGCGGTTAATGGAGTAAACAAGGATGTATTTGCGGAGTCACCTAGTGCAG” it is 44700 fluorescence intensity (a.u.).

Turning to “TAACAGATTAAATCTTGTTAAACTAGGATTAGCTTCGGTTCGGAGTCACCTAGTGCAG”, the binding signal is 7480 fluorescence intensity (a.u.). Next, “GTTAATTGTAACTGAATTTCACCGGATGGAGTAAGAATAGCGGAGTCACCTAGTGCAG”: 23600 fluorescence intensity (a.u.). Next, “TTAATTTTGTGCAAATCATCGAGCTGGGTGTTCAGTATTTCGGAGTCACCTAGTGCAG”: 4610 fluorescence intensity (a.u.). For “TTGTGAGATGATGATTTAACATGCTTGTATTTTAAAAGCTCGGAGTCACCTAGTGCAG”, the binding signal was 4200 fluorescence intensity (a.u.). Regarding “ATTTTAAAAGGTTTGATTAGGAAAGAAGTCAGAACGAATTCGGAGTCACCTAGTGCAG”, the binding signal is 4620 fluorescence intensity (a.u.). Next, “GTTACTGCATGATTTGCTAGATGTATTTTATGACAACAGACGGAGTCACCTAGTGCAG”: 12900 fluorescence intensity (a.u.); “TCTGATTTATAATGTCATAGGATCCGGATAGTATCATAGGCGGAGTCACCTAGTGCAG”: 30800 fluorescence intensity (a.u.). The figure for “ATATTCTGTTGATTATTCTTTATTGCAGGTGTATTCTTGACGGAGTCACCTAGTGCAG” is 3660 fluorescence intensity (a.u.). The figure for “AATGATTGACAATACTTAGATTTCTTCCCTTAATTACATCCGGAGTCACCTAGTGCAG” is 54400 fluorescence intensity (a.u.); for “TCTGTGATTTGATGTTTGCCTGTGTTGTGTGCAAAGTTTTCGGAGTCACCTAGTGCAG” it is 23900 fluorescence intensity (a.u.).

Consider “GACGCAGATGATTACAAGACATTTACTGCTTTTCTGCCTACGGAGTCACCTAGTGCAG”, for which the binding signal was 7090 fluorescence intensity (a.u.). Next, “CTAATTAGTCCATGATTAACCATAAGTGCTACAGTAACCCCGGAGTCACCTAGTGCAG”: 36900 fluorescence intensity (a.u.); “GTTAAATTGGTTTTGGTTGGATCCCTCTATCCGGTATCTGCGGAGTCACCTAGTGCAG”: 39600 fluorescence intensity (a.u.). The figure for “TGATTACTGCATTGATCCGACCAATCAATTCGAAGCATACCGGAGTCACCTAGTGCAG” is 3790 fluorescence intensity (a.u.); for “CTATTTTCTAGTAATTAATTATTCCAAAATTAGAGATACACGGAGTCACCTAGTGCAG” it is 15500 fluorescence intensity (a.u.); for “AAACTAATTAAGAACTGTACCATTGGATCATATATGAGGCCGGAGTCACCTAGTGCAG” it is 20400 fluorescence intensity (a.u.). Next, “ATTTTAAATAGATAAATGAGGAGAGAGAAAGGCAGCGGGCCGGAGTCACCTAGTGCAG”: 8150 fluorescence intensity (a.u.); “ATAAAGCATAATTGATGTTACCTCTTTCTCTTCTGTGACCCGGAGTCACCTAGTGCAG”: 21400 fluorescence intensity (a.u.); “TGGTTAATTTAGCTTCTCCCCTTTCTCGTGTCCTTAGATTCGGAGTCACCTAGTGCAG”: 10200 fluorescence intensity (a.u.). “CAACATTGCATTGATTGTAGTATTATTATGAGAAGATTAGCGGAGTCACCTAGTGCAG”: the binding signal was 9220 fluorescence intensity (a.u.).
